Experimental findings from the RNAGym collection of RNA variant scans (doi:10.1093/nar/gkz1192) are described below.

Read counts are not given, so values of variants with three or more changes are uncertain.

Sequences and labels used below:
B1: CPEB3 Ribozyme (parent)
chain: UAACAGGGGGCCACAGCAGAAGCGUUCACGUCGCAGCCCCUGUCAGAUUCUGGUGAAUCUGCGAAUUCUGCUGUAUAUCUC

The data set covers variants of B1. In words: self-cleavage, relative activity (ratio to wild type); higher = more cleavage; in vitro, sequencing. The gist of the method:
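For each CPEB3 ribozyme variant, relative activity is its cleaved/total read fraction divided by the unmutated ribozyme's. Barcoded error-prone PCR libraries were transcribed by T7 RNA polymerase (5 hours, 37°C) and held in DNase I for 15 min before an EDTA stop, with cleavage occurring throughout. Template-switching reverse transcription and Illumina sequencing were used to read the RNAs. A 5-read minimum applied, and results are the mean of three batches.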
Take UAACACGGGGCCACAGCGGAAGCGUUCACGUCGCAGCCCCUGUCAGAUUCUGGCGAAUCUGCGAACUAUGCCGUAUAUCUC [G6C A18G U54C U66C C68A U72C]: the self-cleavage was 0.09. For UAACACGGGGCCACAGCUGAAGCGUUCGCGUCGCAGCCCCUGUCAGAUUCUGGUGAAUUAGCGAAUUCUGCUGUAUAACUC [G6C A18U A28G C59U U60A U78A], the self-cleavage amounted to 0.06. As to UAACAAGGGGCCACAGCAGAAGCGUUCACGACGCAGCCCCUGUCAGAUUCUGGCGAAUCAGCGAACUCAGCUGUAUAUCUC [G6A U31A U54C U60A U66C U69A], the self-cleavage was 0.06. For the variant UAACACGGGGCCACAGCAGAAGCGUCCUCGUCGCAGCCCCUGUCAGGCUCUGGUGAUUCUGCGAAUUCUGCUGUAUAUCUC [G6C U26C A28U A47G U48C A57U], the self-cleavage is 0.58.

As for UAACAAGGGGCCACAGCAGAAGCGUCCACGUCGCAGCCCCUGUCAGAUUCCGGUGAAUCUGCGAAUUCAGCUGUAUAUCUC [G6A U26C U51C U69A], the self-cleavage amounted to 0.13. On to UAACAAGGGGCCACAGCAGAAGCGUUCACGUCGCAGCCCCUGCCAGAUUCAGGUGAGUCUGCGAAUUCCGCUGUAUAUCUC [G6A U43C U51A A57G U69C], for which the self-cleavage was 0.1. On to UAACACGGGGCCACGGCAGAAGCGUUCACGUCGCAGCCCCUGUCAGAUUCGGGUGGAUCCGCGAAUUCUGCUGUAUAUCUC [G6C A15G U51G A56G U60C], for which the self-cleavage turned out to be 0.14. Regarding UAACAAGGGGCCACAGCAGAAGCGUUCACGUCGCAGCCCCUGUCAGAUUCUGGCGAAUCAGCGAAUUCUGCUGUAUAUCUC [G6A U54C U60A], the self-cleavage was 0.1. UAACAAGGGGCCACAGCAGAAGCGUUCACGUCGCAGCCCCUGUCAGAUUCUGGUGAAUCCGCGAAUACUGCUGUAUAUCUC [G6A U60C U67A]: the self-cleavage was 0.37. In the case of UAACAAGGGGCCACAGCAGAAGCGUUCACGUCGCAGCCCCUGUCAGAUUCUGGUGAAUCUGCGAAUUCUGCUGAGUAUCUC [G6A U74A A75G], the self-cleavage stood at 0.51. In the case of UAACACGGGGCCACAGCAGAAGCGCUCACGUCGCGGCCCCUGUCAGAUUCUGGUGAAUCUGCGAAUUCUGCUGUAUAUCUC [G6C U25C A35G], the self-cleavage worked out at 0.17. With UAACAAGGGGCCACAGCAGAAGCGUUCACGUCGCAGCCCCUGUCAGAUUCUGGAGGAUCUGCGAAUUCUGCUGUAUAUCUC [G6A U54A A56G], the self-cleavage amounted to 0.1.

With UAACAUGGGGCCUCAGCAGAAGCGUUCACGUCGCAGCCCCUGUCAGAUUCUGGUGAAUCUGCGAGCUCUGCUGUAUAUCUC [G6U A13U A65G U66C], the self-cleavage worked out at 0.07. Take UAACAAGGGGCCACAGCAGAAGCGUUCACGACGCAGCCCCUGUCAGAUACUGGUGAAUCUGCGAAUUCUGCUGUAUAUCUC [G6A U31A U49A]: the self-cleavage turned out to be 0.06.

With UAACAAGGGGCCACAGCAGAAGCGUUCACGUCGCAGCCCCUGUCAGACUUUGGUGAAUCUGCGAACUCCGCUGUAUAUCAC [G6A U48C C50U U66C U69C U80A], the self-cleavage was 0.16. To UAACAAGGGGCCACAGCAGAAGCGUUCACGUCGCAGCCCCUGUCAGAAUCUGGUGAGUCUGCGAGCUCUGCUGUAUAUCUC [G6A U48A A57G A65G U66C] belongs 0.05; to UAACAUGGGGCCUCAGCAGAAGCGUUCACGUCGCAGCCCCUGUCAGAUUCUGGUGAAUCCGCGAAUUCUGCUGUAUACCUC [G6U A13U U60C U78C], 0.21.

Turning to UAACAAGGGGCCACAGCAGAAGCGUUCACGUCGCAGCCCCUGUCAGAUUCUGGUGAACCCGCGAAUUCUGCUGUAUAUCUC [G6A U58C U60C], the self-cleavage turned out to be 0.22.

Consider UAACAAGGGGCCACAGCAGAAGCGUUCACGUCGCAGCCCCUGUCAGAUUCUGGAGAAUCUGCGAAGUCUGCUGAAUAUCUC [G6A U54A U66G U74A], for which the self-cleavage was 0.2.

Turning to UAACACGGGGCCCCAGCAAAAGCGUUCACGUCGCAGCCCCUGUCAGAUUCUGGUGAAUCAGCGAAUUCUGCUGUAUAUCUC [G6C A13C G19A U60A], the self-cleavage is 0.1.

On to UAACAAGGGGCCACAGCAGAAGCGUCCACGUCGCAGCCCCUGUCAGAUUCUGGUGAAUCUGCGAAUUCUGCCGUAUAUCAC [G6A U26C U72C U80A], for which the self-cleavage turned out to be 0.07.

For the variant UAACAUGGGGCCGCAGCAGAAGCGUUCACGUCGCAGCCCCUGUCAGAUUCUCGUGAAUCUGCGAAUUCUGCUGUAUAUCUC [G6U A13G G52C], the self-cleavage amounted to 0.21. With UAACAAGGGGCCACAGCAGAAGCGUUCACGUCGCAGCCCCUGCCAGAUUCUGGUGAAUCUGCGAAUUCCACUGUAUGACUC [G6A U43C U69C G70A A77G U78A], the self-cleavage is 0.04. For the variant UAACAAGGGGCCACAGCAGAAGCGUUCACGUCGCAGCCCCUGUCAGAUUCUGGUGAAUCCGCGAAUUCUGCUGUAUAUCCC [G6A U60C U80C], the self-cleavage was found to be 0.47. As for UAACAAGGGGCCACAGCAGAAGCGUUCACGUCGCAGCCCCUGUCAGAUUCUGGUGAACAUGCGAAUUCUGCUGUAUAUCUC [G6A U58C C59A], the self-cleavage is 0.3.

Take UAACAAGGGGCCACAGCAGAAGCGUUCACGCCGCAGCCCCUGUCCGAUUCUGGUGAACCUGCGAAUUCUGCCCUAUAUCUC [G6A U31C A45C U58C U72C G73C]: the self-cleavage was 0.11. Regarding UAACAAGGGGCCACAGCAGAAGCGUUCACGUCGCAGCCCCUGUCAGAUUCUGGUGAAUCUGCGAAUUCUGCAGUAUAUCCC [G6A U72A U80C], the self-cleavage is 0.34.

With UAACACGGGGCCACAGCAGAUGCGUCCACGUCGCAGCCCCAGUCAGACUCUGGUGAAUCUGCGAAUUCUGCUGUGUAUCUC [G6C A21U U26C U41A U48C A75G], the self-cleavage came to 0.05.

For the variant UAACACGGGGCCACAGCAGAAGCGUUCACGUCGCAGCCCCUGUCAGAUUCUGGUGAAUCUGCGAAUUCUCCUGCAUAUCUC [G6C G70C U74C], the self-cleavage stood at 0.17. Regarding UAACACGGGGCCUCAGCAGAAGCGUUCACGUCGCGGCCCCUGUCAGUUUCUGGUGAAUCUGCGAAUUCUGCUGUAUAUCUC [G6C A13U A35G A47U], the self-cleavage was determined as 0.12.

Consider UAACAAGGGGCCACAGCAGAAGCGUUCACGUCGCAGCCCCUGACAGGUUCUGGUGAAUCUGCGAAUUCUGCUGAAUAUCUC [G6A U43A A47G U74A], for which the self-cleavage turned out to be 0.24. Turning to UAACACGGGGCCGCAGCAGAAGCGUUCACGUUGCAGUCCCUGUCAGAUUCUGGUGAAUCUGCGAAUUCUGCUGUAUACCUC [G6C A13G C32U C37U U78C], the self-cleavage turned out to be 0.06. With UAACAAGGGGCCACAGCAGAAGCGUCCACGUCGCAGCCCCUGUCAGACUCUGGAGAAUCUGCGAAUUCUGCUGUAUAUCUC [G6A U26C U48C U54A], the self-cleavage worked out at 0.06. As for UAACACGGGGCCACAGCAGAAGCGUCCACGUCGCGGCCCCUGUCAGAUUCUGGUGUAUCUGCGAAUUCUGCUGUAUAUCUC [G6C U26C A35G A56U], the self-cleavage turned out to be 0.25.
